This note sets out measurements from the supplement of paper PMC12230231.

± gives the standard deviation of the averaged measurements. Restriction of a single-cycle SIVsab GFP reporter by TRIM5α v1-loop variants in CRFK cells. Human variants: read share among cells still uninfected after two challenges over input, higher = gained restriction. Rhesus variants: share among infected cells over input, higher = lost restriction. Reporter dose not given per row. No active / inactive call per row; the paper calls a change when both replicates lie above its controls (mean + 2 SD of stop or wild-type variants, or the top frameshift score). Residues outside the varied loop are taken from Swiss-Prot. The paper reads the human single-substitution scores as noise; they and the rhesus combinations repeat poorly (rank correlation 0.3 to 0.4), indel scores repeat only for the top variants, rhesus substitutions well (0.9).

The test system of the data set is SIVsab (simian immunodeficiency virus of sabaeus monkeys), single-cycle GFP reporter, in CRFK cells. The data set is described as follows: enrichment among uninfected cells over input (fold); higher = stronger restriction. The conditions noted are these: library: human / rhesus combinations. As to the method: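 Pools of CRFK cells expressing variants of the TRIM5α v1 loop were challenged with the single-cycle reporter, sorted by GFP and sequenced; mean of two replicates.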
For “MASGILVNVKEEVTCPICLELLTQPLSLDCGHSFCQACLTANHKKSMLDKGESSCPVCRISYQPENIRPNRHVANIVEKLREVKLSPEGQKVDHCARHGEKLLLFCQEDGKVICWLCERSQEHRGHHTFLTEEVAREYQVKLQAALEMLRQKQQEAEELEADIREEKASWKTQIQYDKTNVLADFEQLRDILDWEESNELQNLEKEEEDILKSLTNSETEMVQQTQSLRELISDLEHRLQGSVMELLQGVDGVIKRTENVTLKKPETFPKNQRRVFRAPDLKGMLEVFRELTDVRRYWVDVTVAPNNISCAVISEDKRQVSSPKPQIIYGAPGTRFQSFVNFNYCTGILGSQSITSGKHYWEVDVSKKTAWILGVCAGFQPDAMCNIEKNENYQPKYGYWVIGLEEGVKCSAFQDSSFHTPSVPFIVPLSVIICPDRVGVFLDYEACTVSFFNITNHGFLIYKFSHCSFSQPVFPYLNPRKCGVPMTLCSPSS [human TRIM5α, 330-340 = GAPGTRFQSFV]”, the enrichment is 0.00789 ± 0.0035. Regarding “MASGILVNVKEEVTCPICLELLTQPLSLDCGHSFCQACLTANHKKSMLDKGESSCPVCRISYQPENIRPNRHVANIVEKLREVKLSPEGQKVDHCARHGEKLLLFCQEDGKVICWLCERSQEHRGHHTFLTEEVAREYQVKLQAALEMLRQKQQEAEELEADIREEKASWKTQIQYDKTNVLADFEQLRDILDWEESNELQNLEKEEEDILKSLTNSETEMVQQTQSLRELISDLEHRLQGSVMELLQGVDGVIKRTENVTLKKPETFPKNQRRVFRAPDLKGMLEVFRELTDVRRYWVDVTVAPNNISCAVISEDKRQVSSPKPQIIYGAPGTRFQSLVNFNYCTGILGSQSITSGKHYWEVDVSKKTAWILGVCAGFQPDAMCNIEKNENYQPKYGYWVIGLEEGVKCSAFQDSSFHTPSVPFIVPLSVIICPDRVGVFLDYEACTVSFFNITNHGFLIYKFSHCSFSQPVFPYLNPRKCGVPMTLCSPSS [human TRIM5α, 330-340 = GAPGTRFQSLV]”, the enrichment came to 0.0383 ± 0.052.

Regarding “MASGILVNVKEEVTCPICLELLTQPLSLDCGHSFCQACLTANHKKSMLDKGESSCPVCRISYQPENIRPNRHVANIVEKLREVKLSPEGQKVDHCARHGEKLLLFCQEDGKVICWLCERSQEHRGHHTFLTEEVAREYQVKLQAALEMLRQKQQEAEELEADIREEKASWKTQIQYDKTNVLADFEQLRDILDWEESNELQNLEKEEEDILKSLTNSETEMVQQTQSLRELISDLEHRLQGSVMELLQGVDGVIKRTENVTLKKPETFPKNQRRVFRAPDLKGMLEVFRELTDVRRYWVDVTVAPNNISCAVISEDKRQVSSPKPQIIYGAPGTRFQTLTNFNYCTGILGSQSITSGKHYWEVDVSKKTAWILGVCAGFQPDAMCNIEKNENYQPKYGYWVIGLEEGVKCSAFQDSSFHTPSVPFIVPLSVIICPDRVGVFLDYEACTVSFFNITNHGFLIYKFSHCSFSQPVFPYLNPRKCGVPMTLCSPSS [human TRIM5α, 330-340 = GAPGTRFQTLT]”, the enrichment was 0.00798 ± 0.003. With “MASGILVNVKEEVTCPICLELLTQPLSLDCGHSFCQACLTANHKKSMLDKGESSCPVCRISYQPENIRPNRHVANIVEKLREVKLSPEGQKVDHCARHGEKLLLFCQEDGKVICWLCERSQEHRGHHTFLTEEVAREYQVKLQAALEMLRQKQQEAEELEADIREEKASWKTQIQYDKTNVLADFEQLRDILDWEESNELQNLEKEEEDILKSLTNSETEMVQQTQSLRELISDLEHRLQGSVMELLQGVDGVIKRTENVTLKKPETFPKNQRRVFRAPDLKGMLEVFRELTDVRRYWVDVTVAPNNISCAVISEDKRQVSSPKPQIIYGAPGTRFQTLVNFNYCTGILGSQSITSGKHYWEVDVSKKTAWILGVCAGFQPDAMCNIEKNENYQPKYGYWVIGLEEGVKCSAFQDSSFHTPSVPFIVPLSVIICPDRVGVFLDYEACTVSFFNITNHGFLIYKFSHCSFSQPVFPYLNPRKCGVPMTLCSPSS [human TRIM5α, 330-340 = GAPGTRFQTLV]”, the enrichment stood at 0.00361 ± 0.0015. The value for “MASGILVNVKEEVTCPICLELLTQPLSLDCGHSFCQACLTANHKKSMLDKGESSCPVCRISYQPENIRPNRHVANIVEKLREVKLSPEGQKVDHCARHGEKLLLFCQEDGKVICWLCERSQEHRGHHTFLTEEVAREYQVKLQAALEMLRQKQQEAEELEADIREEKASWKTQIQYDKTNVLADFEQLRDILDWEESNELQNLEKEEEDILKSLTNSETEMVQQTQSLRELISDLEHRLQGSVMELLQGVDGVIKRTENVTLKKPETFPKNQRRVFRAPDLKGMLEVFRELTDVRRYWVDVTVAPNNISCAVISEDKRQVSSPKPQIIYGAPGTRFTFPSFTNFNYCTGILGSQSITSGKHYWEVDVSKKTAWILGVCAGFQPDAMCNIEKNENYQPKYGYWVIGLEEGVKCSAFQDSSFHTPSVPFIVPLSVIICPDRVGVFLDYEACTVSFFNITNHGFLIYKFSHCSFSQPVFPYLNPRKCGVPMTLCSPSS [human TRIM5α, 330-340 = GAPGTRFTFPSFT]” was 0.185 ± 0.022. “MASGILVNVKEEVTCPICLELLTQPLSLDCGHSFCQACLTANHKKSMLDKGESSCPVCRISYQPENIRPNRHVANIVEKLREVKLSPEGQKVDHCARHGEKLLLFCQEDGKVICWLCERSQEHRGHHTFLTEEVAREYQVKLQAALEMLRQKQQEAEELEADIREEKASWKTQIQYDKTNVLADFEQLRDILDWEESNELQNLEKEEEDILKSLTNSETEMVQQTQSLRELISDLEHRLQGSVMELLQGVDGVIKRTENVTLKKPETFPKNQRRVFRAPDLKGMLEVFRELTDVRRYWVDVTVAPNNISCAVISEDKRQVSSPKPQIIYGAPGTRFTFPSFVNFNYCTGILGSQSITSGKHYWEVDVSKKTAWILGVCAGFQPDAMCNIEKNENYQPKYGYWVIGLEEGVKCSAFQDSSFHTPSVPFIVPLSVIICPDRVGVFLDYEACTVSFFNITNHGFLIYKFSHCSFSQPVFPYLNPRKCGVPMTLCSPSS [human TRIM5α, 330-340 = GAPGTRFTFPSFV]”: the enrichment worked out at 0.124 ± 0.034.

Regarding “MASGILVNVKEEVTCPICLELLTQPLSLDCGHSFCQACLTANHKKSMLDKGESSCPVCRISYQPENIRPNRHVANIVEKLREVKLSPEGQKVDHCARHGEKLLLFCQEDGKVICWLCERSQEHRGHHTFLTEEVAREYQVKLQAALEMLRQKQQEAEELEADIREEKASWKTQIQYDKTNVLADFEQLRDILDWEESNELQNLEKEEEDILKSLTNSETEMVQQTQSLRELISDLEHRLQGSVMELLQGVDGVIKRTENVTLKKPETFPKNQRRVFRAPDLKGMLEVFRELTDVRRYWVDVTVAPNNISCAVISEDKRQVSSPKPQIIYGAPGTRFTFPSLTNFNYCTGILGSQSITSGKHYWEVDVSKKTAWILGVCAGFQPDAMCNIEKNENYQPKYGYWVIGLEEGVKCSAFQDSSFHTPSVPFIVPLSVIICPDRVGVFLDYEACTVSFFNITNHGFLIYKFSHCSFSQPVFPYLNPRKCGVPMTLCSPSS [human TRIM5α, 330-340 = GAPGTRFTFPSLT]”, the enrichment turned out to be 0.181 ± 0.035. The value for “MASGILVNVKEEVTCPICLELLTQPLSLDCGHSFCQACLTANHKKSMLDKGESSCPVCRISYQPENIRPNRHVANIVEKLREVKLSPEGQKVDHCARHGEKLLLFCQEDGKVICWLCERSQEHRGHHTFLTEEVAREYQVKLQAALEMLRQKQQEAEELEADIREEKASWKTQIQYDKTNVLADFEQLRDILDWEESNELQNLEKEEEDILKSLTNSETEMVQQTQSLRELISDLEHRLQGSVMELLQGVDGVIKRTENVTLKKPETFPKNQRRVFRAPDLKGMLEVFRELTDVRRYWVDVTVAPNNISCAVISEDKRQVSSPKPQIIYGAPGTRFTFPSLVNFNYCTGILGSQSITSGKHYWEVDVSKKTAWILGVCAGFQPDAMCNIEKNENYQPKYGYWVIGLEEGVKCSAFQDSSFHTPSVPFIVPLSVIICPDRVGVFLDYEACTVSFFNITNHGFLIYKFSHCSFSQPVFPYLNPRKCGVPMTLCSPSS [human TRIM5α, 330-340 = GAPGTRFTFPSLV]” was 0.182 ± 0.08. As for “MASGILVNVKEEVTCPICLELLTQPLSLDCGHSFCQACLTANHKKSMLDKGESSCPVCRISYQPENIRPNRHVANIVEKLREVKLSPEGQKVDHCARHGEKLLLFCQEDGKVICWLCERSQEHRGHHTFLTEEVAREYQVKLQAALEMLRQKQQEAEELEADIREEKASWKTQIQYDKTNVLADFEQLRDILDWEESNELQNLEKEEEDILKSLTNSETEMVQQTQSLRELISDLEHRLQGSVMELLQGVDGVIKRTENVTLKKPETFPKNQRRVFRAPDLKGMLEVFRELTDVRRYWVDVTVAPNNISCAVISEDKRQVSSPKPQIIYGAPGTRFTFPTFTNFNYCTGILGSQSITSGKHYWEVDVSKKTAWILGVCAGFQPDAMCNIEKNENYQPKYGYWVIGLEEGVKCSAFQDSSFHTPSVPFIVPLSVIICPDRVGVFLDYEACTVSFFNITNHGFLIYKFSHCSFSQPVFPYLNPRKCGVPMTLCSPSS [human TRIM5α, 330-340 = GAPGTRFTFPTFT]”, the enrichment was found to be 0.124 ± 0.06. As to “MASGILVNVKEEVTCPICLELLTQPLSLDCGHSFCQACLTANHKKSMLDKGESSCPVCRISYQPENIRPNRHVANIVEKLREVKLSPEGQKVDHCARHGEKLLLFCQEDGKVICWLCERSQEHRGHHTFLTEEVAREYQVKLQAALEMLRQKQQEAEELEADIREEKASWKTQIQYDKTNVLADFEQLRDILDWEESNELQNLEKEEEDILKSLTNSETEMVQQTQSLRELISDLEHRLQGSVMELLQGVDGVIKRTENVTLKKPETFPKNQRRVFRAPDLKGMLEVFRELTDVRRYWVDVTVAPNNISCAVISEDKRQVSSPKPQIIYGAPGTRFTFPTFVNFNYCTGILGSQSITSGKHYWEVDVSKKTAWILGVCAGFQPDAMCNIEKNENYQPKYGYWVIGLEEGVKCSAFQDSSFHTPSVPFIVPLSVIICPDRVGVFLDYEACTVSFFNITNHGFLIYKFSHCSFSQPVFPYLNPRKCGVPMTLCSPSS [human TRIM5α, 330-340 = GAPGTRFTFPTFV]”, the enrichment is 0.246 ± 0.012. “MASGILVNVKEEVTCPICLELLTQPLSLDCGHSFCQACLTANHKKSMLDKGESSCPVCRISYQPENIRPNRHVANIVEKLREVKLSPEGQKVDHCARHGEKLLLFCQEDGKVICWLCERSQEHRGHHTFLTEEVAREYQVKLQAALEMLRQKQQEAEELEADIREEKASWKTQIQYDKTNVLADFEQLRDILDWEESNELQNLEKEEEDILKSLTNSETEMVQQTQSLRELISDLEHRLQGSVMELLQGVDGVIKRTENVTLKKPETFPKNQRRVFRAPDLKGMLEVFRELTDVRRYWVDVTVAPNNISCAVISEDKRQVSSPKPQIIYGAPGTRFTFPTLTNFNYCTGILGSQSITSGKHYWEVDVSKKTAWILGVCAGFQPDAMCNIEKNENYQPKYGYWVIGLEEGVKCSAFQDSSFHTPSVPFIVPLSVIICPDRVGVFLDYEACTVSFFNITNHGFLIYKFSHCSFSQPVFPYLNPRKCGVPMTLCSPSS [human TRIM5α, 330-340 = GAPGTRFTFPTLT]”: the enrichment is 0.219 ± 0.026. For the sequence “MASGILVNVKEEVTCPICLELLTQPLSLDCGHSFCQACLTANHKKSMLDKGESSCPVCRISYQPENIRPNRHVANIVEKLREVKLSPEGQKVDHCARHGEKLLLFCQEDGKVICWLCERSQEHRGHHTFLTEEVAREYQVKLQAALEMLRQKQQEAEELEADIREEKASWKTQIQYDKTNVLADFEQLRDILDWEESNELQNLEKEEEDILKSLTNSETEMVQQTQSLRELISDLEHRLQGSVMELLQGVDGVIKRTENVTLKKPETFPKNQRRVFRAPDLKGMLEVFRELTDVRRYWVDVTVAPNNISCAVISEDKRQVSSPKPQIIYGAPGTRFTFPTLVNFNYCTGILGSQSITSGKHYWEVDVSKKTAWILGVCAGFQPDAMCNIEKNENYQPKYGYWVIGLEEGVKCSAFQDSSFHTPSVPFIVPLSVIICPDRVGVFLDYEACTVSFFNITNHGFLIYKFSHCSFSQPVFPYLNPRKCGVPMTLCSPSS [human TRIM5α, 330-340 = GAPGTRFTFPTLV]”, the enrichment was found to be 0.188 ± 0.014.
